In paper PMC12136788:
Some of the results follow.

T1: UNK ZnF1-3 (human, UniProt Q9C0B0 31-174)
T1 sequence: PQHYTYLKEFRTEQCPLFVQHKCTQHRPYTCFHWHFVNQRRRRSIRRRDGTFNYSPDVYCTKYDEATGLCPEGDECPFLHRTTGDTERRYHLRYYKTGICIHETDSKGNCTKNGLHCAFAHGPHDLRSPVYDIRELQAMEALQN

B1: chr6:55002191:55002192:+_ENSMUSG00000029777_ENSMUST00000003572|mus_hu|motif|central (ssRNA)
RNA: GGGAGUUCUACAGUCCGACGAUCAUGGUCAGCACGAAAACAUUCUCCAUUUUUUACGUCUUUCACCAUGAAGUCAGCAAAUUUGUCGGCAUGGCCAGAGGUCUUUAAAACUGGCUCAGGGGUGAGCAUGGUGCAAUCGAUCUCCAACAGAGGAUUGAGCAUCA
B2: chr2:48026839:48026840:+_ENSG00000116062_ENST00000540021|hu_hu|hu_hu_hu_mus_False|38_58 (ssRNA)
RNA: GGGAGUUCUACAGUCCGACGAUCAUAGUGAGCCACUAGCGUCCUAAAUCUGGAACAGUGGCGGUCAUCCGAAAACUGACCUAUGAAAAACUUGCCCAGUGAAGUAUCCACAAAGCAAACACCAUACACACGAGUGUGACCAGACAACAGAGGAUUGAGCAUCA
B3: chr17:49627581:49627582:-_ENSMUSG00000040260_ENSMUST00000057610|mus_hu|FALSE|FALSE (ssRNA)
RNA: GGGAGUUCUACAGUCCGACGAUCAUUUUCAUGUUGCCGGAGCUUGUCAAUCACAGGCUGUAUACCCAGCAUCAGGAAUUCAUACCGUAGAUGUAGGCGGAACUCCAGAUUAUCCUCUCCAGCUCCAGCAUUGAGGACAGCAUUCAACAGAGGAUUGAGCAUCA
B4: chr5:137527996:137527997:-_ENSG00000094880_ENST00000394886|hu_hu|FALSE|FALSE (ssRNA)
RNA: GGGAGUUCUACAGUCCGACGAUCUUCUCCUAAAGCAACCAGCAUGCGAGAAUCAUUGGGUCGAAGCUGGUGGGCCCGUCUAUAAUAAUAAAGGCAGUAAAAUGGCAUCUUAAGGAUUUCAUAGGUCUGCCCGAGGCCAUACCACAACAGAGGAUUGAGCAUCA
B5: chr18:52893488:52893489:-_ENSG00000196628_ENST00000354452|hu_hu|hu_hu_hu_mus_True|48_98 (ssRNA)
RNA: GGGAGUUCUACAGUCCGACGAUCUAUUUAGACCAUUUCAAUGGAUUUAUGGCAUUUACUCAGUGCUGAUAGGUGGAAAAACUACUUGAACAGGGAUUUUUUUUUUCCUUAAUACAUGCCAAGAUUGUGUGGCUGUCAAAACAGCAACAGAGGAUUGAGCAUCA
B6: chr1:46159212:46159213:+_ENSG00000159596_ENST00000372025|hu_mus|hu_hu_hu_mus_True|28_68 (ssRNA)
RNA: GGGAGUUCUACAGUCCGACGAUCUCUGAUCCCUCCCAAGAAAGCUAGGAAACCGGCUCCAUAAGCCAUCUGAGUAAAAGCUAGGACGGGGAUAUAAGACUUUGUUAUCAGCAUGACAAGUGGGGGAGCAGUAAAGGGGAUUAACAACAGAGGAUUGAGCAUCA
B7: chr2:217001844:217001845:+_ENSG00000079246_ENST00000392132|hu_hu|hu_hu_hu_mus_False|68_98 (ssRNA)
RNA: GGGAGUUCUACAGUCCGACGAUCACCAACUUGAGGAUUAGCUCUUUUGUCAUAAGCAUAUCGGACGAUGGCCACCAUGUUUAACUCAUCCAAAGCAUGAACGAGAGAGGAAAGGGCAACAGCUGCCGCCUCAUCAUCCUUUGCCAACAGAGGAUUGAGCAUCA
B8: chr22:41863543:41863544:-_ENSG00000100410_ENST00000216252|hu_mus|FALSE|FALSE (ssRNA)
RNA: GGGAGUUCUACAGUCCGACGAUCGGCAUCGGAGACUCCGGGGCCGCCACAGAUUACACACCGGCCCUGGUAAGAUCCAUAGUUACACUCAUCACAUAUGCGGACCAGGGUGCAGGGACGCACGUAGGAAUCACAGAUCACACACAACAGAGGAUUGAGCAUCA
B9: 23167715_23171204_679_CDS_ENSMUSG00000020290_ENSMUST00000020538|mouse|control|control (ssRNA)
RNA: GGGAGUUCUACAGUCCGACGAUCUUCACACUGGUUCCUUGGAAGGAUCUUCCACCUUGUUUUGAUCACAUUUUCCAAAAUCUGUAGUCCAUAGUAUUUCGUGUUCAUGUUCUGCGAAAACUCCAAUAUUGUGUCGACCCGUGUCAACAGAGGAUUGAGCAUCA
B10: chr11:105132459:105132460:+_ENSMUSG00000020694_ENSMUST00000015107|mus_mus|motif|central (ssRNA)
RNA: GGGAGUUCUACAGUCCGACGAUCGAUCUUGGAAAGACCAAAAUCUGUAAUUUUUAUCUCUCCACAUGCUGUACCAUUUACGGAAAGGAUAUUACCUGGUUUGAGGUCAUAGUGUAUGAUGGGAGGUUUUAUUUCAUUUAAGUACAACAGAGGAUUGAGCAUCA
B11: chrX:140365796:140365797:-_ENSMUSG00000031285_ENSMUST00000033642|mus_mus|mus_mus_mus_hu_False|8_28 (ssRNA)
RNA: GGGAGUUCUACAGUCCGACGAUCCUUCUCAUUACUCAGUGCCUGCAAGGUUCUGGUUCGGUAGAAGCUACAGUGGGCGCUGUGAGUGGGGCUAGGCAACCCAUUCAUCCGUGACCCUCGCAUGUUCCUAGAUGCUUUAUCUCUCAACAGAGGAUUGAGCAUCA
B12: chr15:31520727:31520728:-_ENSMUSG00000022234_ENSMUST00000022842|mus_mus|motif|central (ssRNA)
RNA: GGGAGUUCUACAGUCCGACGAUCAGUUUAUUCUUCAGAUUCUCCAGGCUUACGGAUGUCAUCAAUCUUCAGAAUCAUCCGGACCAUCUGGGUGGCAAGAGAGAUCUGCUGCUUUUUGCCAAUCAAGGUUUCUAUGACAUGCUGCAACAGAGGAUUGAGCAUCA
B13: chr6:118368571:118368572:-_ENSMUSG00000030138_ENSMUST00000032237|mus_hu|FALSE|FALSE (ssRNA)
RNA: GGGAGUUCUACAGUCCGACGAUCAUCCUGCAGAAGCCGCUUCUUUUUCUUUGCAGCUUUGGGUCCACUGUUUUUCUUUCUGUGUUUCUUCUGGUCCUUAGCCUCCAUAGUGGCUAUUUACCAAUAACAAGUAACUCUAACCUGCAACAGAGGAUUGAGCAUCA
B14: 242098753_242099861_505_CDS_ENSG00000115685_ENST00000406106|human|control|control (ssRNA)
RNA: GGGAGUUCUACAGUCCGACGAUCGCUUAAGUUCUCAAUUUUACUGAUUUUAUUGUUGACCAAGAAGAGUUUUUUCAGUCGUGUCAACUUGUCAACCCCUUCGAUGUUUCUCAGCAGAUUAAAAGAAAUAUCUAGAAUCUCCAGCAACAGAGGAUUGAGCAUCA

Target: T1, UNK ZnF1-3
Assay: nsRBNS (natural sequence RNA bind-n-seq); RBNS binding buffer (assumed for nsRBNS): 25 mM Tris pH 7.5, 150 mM KCl, 3 mM MgCl2, 0.01% Triton X-100, 500 ug/ml BSA, 20 U/ml SUPERase-In, 4 C; UNK is unkempt and MSI1 is Musashi-1; names of the RNAs are library labels; protein concentration not given here; high values mean tight binding

Compared with B1, B2 is higher in binding signal: 0.785 enrichment R for the first, 1.06 enrichment R for the second.

Compared with B3, B4 is higher in binding signal: 0.878 enrichment R for the first, 1.21 enrichment R for the second.

Going from B5 to B6, the binding signal rises from 0.819 enrichment R to 1.34 enrichment R.

Going from B7 to B8, the binding signal falls from 1.58 enrichment R to 1.25 enrichment R.

First: B9
Second: B10
The binding signal of the first is lower: 0.542 enrichment R for the first, 1.05 enrichment R for the second.

First: B11
Second: B12
The binding signal of the first is lower: 0.646 enrichment R for the first, 1.12 enrichment R for the second.

First: B13
Second: B14
The binding signal of the first is lower: 0.345 enrichment R for the first, 0.55 enrichment R for the second.
